# In the supplement of paper PMC8728848:
# The list shows a part of the results.
# B1: LSECtin (Homo sapiens), Q6UXB4 (protein)
# chain: MEQESALRELRERVTQGLAEAGRGREDVRTELFRALEAVRLQNNSCEPCPTSWLSFEGSCYFFSVPKTTWAAAQDHCADASAHLVIVGGLDEQGFLTRNTRGRGYWLGLRAVRHLGKVQGYQWVDGVSLSFSHWNQGEPNDAWGRENCVMMLHTGLWNDAPCDSEKDGWICEKKAQLLTPPSALEPRPLQHVVSWGLLTSLAPGADCQRVFSSSSTAAESQKHLAQHSPVQPSAWALGPPCRPHPNSTHADPT
# Legend:
# Assay in all cases: glycan array binding signal (z-score within array); higher = stronger binding
# Conditions in all cases: glycan notation: IUPAC condensed, linker removed
# [1] = biological target: Fuc(a1-3)[Gal(b1-4)]GlcNAc(b1-2)Man(a1-6)[Gal(b1-4)GlcNAc(b1-2)Man(a1-3)]Man(b1-4)GlcNAc(b1-4)GlcNAc
# Method in brief: (§1)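 Negative Z-scores can be read as non-binding. The Z-score is calculated within each array and then averaged across arrays of one protein sequence at different concentrations or buffers and across linkers. Arrays, 3228 in all, were curated from the Consortium for Functional Glycomics database and kept only where the protein sequence was available.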
# [2] = biological target: Fuc(a1-3)[Gal(b1-4)]GlcNAc(b1-3)Gal(b1-3)[Fuc(a1-4)]GlcNAc
# Method in brief: as §1
# [3] = biological target: Fuc(a1-3)[Gal(b1-4)]GlcNAc(b1-4)Gal(b1-4)[Fuc(a1-3)]GlcNAc
# Method in brief: as §1
# [4] = biological target: Fuc(a1-3)[Gal(b1-4)]GlcNAc(b1-4)Gal(b1-4)[Fuc(a1-3)]GlcNAc(b1-4)Gal(b1-4)[Fuc(a1-3)]GlcNAc
# Method in brief: as §1
# [5] = biological target: Fuc(a1-3)[Gal(b1-4)]GlcNAc6S
# Method in brief: as §1
# [6] = biological target: Fuc(a1-3)[Gal3S(b1-4)]Glc6S
# Method in brief: as §1
# [7] = biological target: Fuc(a1-3)[Gal3S(b1-4)]GlcNAc
# Method in brief: as §1
# [8] = biological target: Fuc(a1-3)[Gal3S(b1-4)]GlcNAc6S
# Method in brief: as §1
# [9] = biological target: Fuc(a1-3)[GalNAc(b1-4)]GlcNAc
# Method in brief: as §1
# Fuc(a1-4)GlcNAc = biological target: Fuc(a1-4)GlcNAc
# Method in brief: as §1
# Fuc(b1-3)GlcNAc = biological target: Fuc(b1-3)GlcNAc
# Method in brief: as §1
# Gal(a1-2)Gal = biological target: Gal(a1-2)Gal
# Method in brief: as §1
# Gal(a1-3)Gal = biological target: Gal(a1-3)Gal
# Method in brief: as §1
# Gal(a1-3)Gal(b1-3)GlcNAc = biological target: Gal(a1-3)Gal(b1-3)GlcNAc
# Method in brief: as §1
# Gal(a1-3)Gal(b1-4)Glc = biological target: Gal(a1-3)Gal(b1-4)Glc
# Method in brief: as §1
# Gal(a1-3)Gal(b1-4)GlcNAc = biological target: Gal(a1-3)Gal(b1-4)GlcNAc
# Method in brief: as §1
# [10] = biological target: Gal(a1-3)Gal(b1-4)[Fuc(a1-3)]GlcNAc
# Method in brief: as §1
# Gal(a1-3)GalNAc = biological target: Gal(a1-3)GalNAc
# Method in brief: as §1
# [11] = biological target: Gal(a1-3)[Gal(a1-4)]Gal(b1-4)GlcNAc
# Method in brief: as §1
# Gal(a1-4)Gal(b1-4)Glc = biological target: Gal(a1-4)Gal(b1-4)Glc
# Method in brief: as §1
# Gal(a1-4)Gal(b1-4)GlcNAc = biological target: Gal(a1-4)Gal(b1-4)GlcNAc
# Method in brief: as §1
# Gal(a1-4)GlcNAc = biological target: Gal(a1-4)GlcNAc
# Method in brief: as §1
# Gal(a1-6)Glc = biological target: Gal(a1-6)Glc
# Method in brief: as §1
# Gal(b1-2)Gal = biological target: Gal(b1-2)Gal
# Method in brief: as §1
# Gal(b1-3)Gal = biological target: Gal(b1-3)Gal
# Method in brief: as §1
# Gal(b1-3)Gal(b1-4)GlcNAc = biological target: Gal(b1-3)Gal(b1-4)GlcNAc
# Method in brief: as §1
# Gal(b1-3)GalNAc = biological target: Gal(b1-3)GalNAc
# Method in brief: as §1
# [12] = biological target: Gal(b1-3)GalNAc(b1-3)Gal(a1-4)Gal(b1-4)Glc
# Method in brief: as §1
# [13] = biological target: Gal(b1-3)GalNAc(b1-4)Gal(b1-4)Glc
# Method in brief: as §1
# [14] = biological target: Gal(b1-3)GalNAc(b1-4)[Neu5Ac(a2-3)]Gal(b1-4)Glc
# Method in brief: as §1
# Gal(b1-3)GlcNAc = biological target: Gal(b1-3)GlcNAc
# Method in brief: as §1
# [15] = biological target: Gal(b1-3)GlcNAc(b1-2)Man(a1-3)[Gal(b1-3)GlcNAc(b1-2)Man(a1-6)]Man(b1-4)GlcNAc(b1-4)GlcNAc
# Method in brief: as §1
# [16] = biological target: Gal(b1-3)GlcNAc(b1-3)Gal(b1-3)GlcNAc
# Method in brief: as §1
# [17] = biological target: Gal(b1-3)GlcNAc(b1-3)Gal(b1-4)Glc
# Method in brief: as §1
# [18] = biological target: Gal(b1-3)GlcNAc(b1-3)Gal(b1-4)GlcNAc
# Method in brief: as §1
# [19] = biological target: Gal(b1-3)[Fuc(a1-4)]GlcNAc
# Method in brief: as §1
# [20] = biological target: Gal(b1-3)[Fuc(a1-4)]GlcNAc(b1-3)Gal(b1-3)[Fuc(a1-4)]GlcNAc
# Method in brief: as §1
# [21] = biological target: Gal(b1-3)[Fuc(a1-4)]GlcNAc(b1-3)Gal(b1-4)GlcNAc
# Method in brief: as §1
binder,measurement,setting,value
B1,glycan array binding signal (z-score),[1],2.33
same,glycan array binding signal (z-score),[2],-0.278
same,glycan array binding signal (z-score),[3],-0.284
same,glycan array binding signal (z-score),[4],-0.279
same,glycan array binding signal (z-score),[5],0.014
same,glycan array binding signal (z-score),[6],0.092
same,glycan array binding signal (z-score),[7],0.177
same,glycan array binding signal (z-score),[8],0.707
same,glycan array binding signal (z-score),[9],-0.259
same,glycan array binding signal (z-score),Fuc(a1-4)GlcNAc,-0.301
same,glycan array binding signal (z-score),Fuc(b1-3)GlcNAc,0.342
same,glycan array binding signal (z-score),Gal(a1-2)Gal,-0.295
same,glycan array binding signal (z-score),Gal(a1-3)Gal,-0.298
same,glycan array binding signal (z-score),Gal(a1-3)Gal(b1-3)GlcNAc,-0.305
same,glycan array binding signal (z-score),Gal(a1-3)Gal(b1-4)Glc,-0.285
same,glycan array binding signal (z-score),Gal(a1-3)Gal(b1-4)GlcNAc,-0.298
same,glycan array binding signal (z-score),[10],0.344
same,glycan array binding signal (z-score),Gal(a1-3)GalNAc,-0.291
same,glycan array binding signal (z-score),[11],-0.301
same,glycan array binding signal (z-score),Gal(a1-4)Gal(b1-4)Glc,-0.309
same,glycan array binding signal (z-score),Gal(a1-4)Gal(b1-4)GlcNAc,-0.291
same,glycan array binding signal (z-score),Gal(a1-4)GlcNAc,-0.297
same,glycan array binding signal (z-score),Gal(a1-6)Glc,-0.305
same,glycan array binding signal (z-score),Gal(b1-2)Gal,-0.302
same,glycan array binding signal (z-score),Gal(b1-3)Gal,-0.288
same,glycan array binding signal (z-score),Gal(b1-3)Gal(b1-4)GlcNAc,-0.304
same,glycan array binding signal (z-score),Gal(b1-3)GalNAc,-0.305
same,glycan array binding signal (z-score),[12],-0.285
same,glycan array binding signal (z-score),[13],-0.293
same,glycan array binding signal (z-score),[14],-0.305
same,glycan array binding signal (z-score),Gal(b1-3)GlcNAc,-0.278
same,glycan array binding signal (z-score),[15],-0.228
same,glycan array binding signal (z-score),[16],-0.298
same,glycan array binding signal (z-score),[17],-0.295
same,glycan array binding signal (z-score),[18],-0.302
same,glycan array binding signal (z-score),[19],-0.237
same,glycan array binding signal (z-score),[20],-0.278
same,glycan array binding signal (z-score),[21],-0.281
